# Laboratory results from PubChem BioAssay AID504706 (National Center for Advancing Translational Sciences (NCATS), 2011).
# The whole screen tested about 320,000 compounds, of which about 200 (0.062%) were called active. The shares of active, inactive and inconclusive entries below differ from those in the screen. Calls follow the shape of the dose curve; as a rule, active = well fitted activation curve with a large enough effect; inconclusive = small, poorly fitted or top-dose-only effect; inactive = no such curve, though single readings can be large or run the other way. No potency is given beside an inconclusive call; the fits are too rough.
# Assay: qHTS assay for re-activators of p53 using a Luc reporter; also: nearly all actives have a fitted effect of over 45% in size
# Details: H1299 p53-A138V BP100-luciferase reporter, luminescence, 24 h; series mostly up to 92.2 µM
# Method in brief: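 p53-null H1299 cells stably carrying temperature-sensitive p53-A138V and a BP100-luciferase reporter were pinned with compounds (4-point, 1:5 series) and held 24 hrs at 37 deg C. Luminescence was read 10 min after detection reagent.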
# Potency is read from the fitted curve at half-maximal effect; tags tell the direction and shape of the fitted curve.
row,SMILES,Potency
1,CN(C(=O)c1ccc(NC(=O)c2ccco2)cc1)c1ccccc1,inactive
2,CCN(CC)S(=O)(=O)c1ccc2nc(NC(=O)c3cccs3)sc2c1,"inconclusive [activator, partial curve, poor fit]"
3,O=C(NNC(=O)c1cc(Br)ccc1O)c1csc(N2CCOCC2)n1,"inconclusive [activator, full curve, poor fit]"
4,C=CCNc1nc(-c2sc(NC(C)=O)nc2C)cs1,"inconclusive [activator, partial curve, poor fit]"
5,O=C(Nc1nc(-c2cc(F)ccc2F)cs1)C1=COCCO1,inactive
6,CC(C)(C)c1ccc(/C=N/NC(=S)NC2CCCCC2)cc1,"inconclusive [activator, partial curve, poor fit]"
7,Cc1ccc(S(=O)(=O)CCc2nnc(NC(=O)c3cnccn3)s2)cc1,"inconclusive [activator, single point]"
8,CCCC(=O)c1ccc(N2CCOCC2)c(F)c1,"inconclusive [activator, partial curve, poor fit]"
9,O=C(NCc1nnc(SCC(=O)N2CCCCC2)o1)c1c(F)cccc1F,"inconclusive [activator, single point]"
10,COc1ccc(C2NC3=C(CCCC3)C(C#N)(C#N)C2(C#N)C#N)cc1 (configuration not stated),"inconclusive [activator, single point]"
11,CCc1ccc(-c2cc(C)no2)cc1S(=O)(=O)Nc1cc(C)on1,"inconclusive [activator, single point]"
12,CC1CC(C)CN(C(=O)COC(=O)c2ccc([N+](=O)[O-])o2)C1 (configuration not stated),"inconclusive [activator, full curve]"
13,COc1cccc(NC(=O)c2nnn(CCc3ccccc3)c2N)c1,"inconclusive [activator, full curve, poor fit]"
14,COc1ccc(C2CC2/C(=N/OC(=O)c2cccs2)c2ccccc2)cc1 (configuration not stated),"inconclusive [activator, partial curve, poor fit]"
15,O=c1c2cnn(-c3ccccc3)c2ncn1CCc1ccccc1,"inconclusive [activator, partial curve, poor fit]"
16,COC(=O)c1ccc(NC(=S)Nc2ccccn2)cc1,"inconclusive [activator, full curve, poor fit]"
17,O=C(Nc1nc(-c2ccccc2)cs1)c1ccc(Br)o1,"inconclusive [activator, single point]"
18,Cc1ccc(NC(=O)C2C3CCC(O3)C2C(=O)O)cc1C (configuration not stated),"inconclusive [activator, partial curve, poor fit]"
19,CC(C)(C)c1ccc(-c2noc(CCC(=O)NCC3CCCO3)n2)cc1 (configuration not stated),"inconclusive [activator, partial curve]"
20,O=C(Cc1ccsc1)Nc1ccc2c(c1)OCO2,"inconclusive [activator, partial curve, poor fit]"
21,COc1ccccc1/C=C/C(=O)NC(=S)N1CCOCC1,"inconclusive [activator, full curve, poor fit]"

row,SMILES,Potency
1,C/C(=N/NC(=O)C1CCCC1)c1ccc(NC(=O)C(F)(F)F)cc1,"inconclusive [activator, single point]"
2,CSc1ccc(/C=C(\C#N)C(=O)NC2CCCCC2)cc1,inactive
3,NC(=O)c1ccc(-c2ccc(Br)cc2)o1,"inconclusive [activator, partial curve, poor fit]"
4,Cc1ccc(S(=O)(=O)NC2=NCN(CC(=O)O)CN2)cc1,inactive
5,N#Cc1ccc(C(=O)NC2=NCCS2)cc1,"inconclusive [activator, partial curve, poor fit]"
6,O=C(CSc1nnnn1-c1ccccc1)NC(=O)Nc1ccc2c(c1)OCCO2,"inconclusive [activator, full curve, poor fit]"
7,COc1ccc(-c2nc3ccccc3c(=O)[nH]2)cc1,"inconclusive [activator, partial curve, poor fit]"
8,COc1c[nH]n(C2CCCCC2)c(=O)c1=O,"inconclusive [activator, single point]"
9,O=C(/C=C/c1cc2ccccc2o1)c1ccccc1O,"inconclusive [activator, partial curve, poor fit]"
10,Cc1occc1C(=O)NNC(=O)c1ccccc1F,"inconclusive [activator, single point]"
11,COc1ccc(CNC(=O)Cn2cccc2C(=O)c2ccccc2C)cc1,"inconclusive [activator, single point]"
12,c1cncc(-c2noc(-c3cccc4ccccc34)n2)c1,"inconclusive [activator, partial curve]"
13,O=[N+]([O-])c1ccc(/C=N/Nc2nc(N3CCCCC3)nc(N3CCCCC3)n2)o1,"inconclusive [activator, partial curve, poor fit]"
14,O=C(Nc1nc2cc(Cl)ccc2s1)C1CCCN(S(=O)(=O)c2cccc3cccnc23)C1 (configuration not stated),inactive
15,CCOC(=O)COc1ccc2c(c1)C(=O)CC1(CCCCC1)O2,inactive
16,CCOC(=O)C1CCN(C(=O)Nc2ccccc2Cl)CC1,"inconclusive [activator, partial curve, poor fit]"
17,CCOc1ccc(OCc2ccc(C(=O)N3CCCC3)o2)cc1,inactive
18,COC(=O)c1ccc(COc2cc(C)ccc2C)o1,"inconclusive [activator, partial curve, poor fit]"
19,Cc1cc(C)n(-c2nc(-n3nc(C)cc3C)c3c4c(sc3n2)COC(C)(C)C4)n1,"inconclusive [activator, partial curve, poor fit]"
20,Cc1cc(OCc2cc(C(=O)NC3CCC3)no2)cc(C)c1Cl,"inconclusive [activator, single point]"
21,CN1C(=O)/C(=C/c2ccc(O)c([N+](=O)[O-])c2)N(C)C1=S,inactive
